Results taken from PubChem BioAssay AID360 (National Center for Advancing Translational Sciences (NCATS), 2006).
The campaign covered roughly 48,000 compounds. About 550 (1.1%) were called active. About 4% were inconclusive and are not listed. Rule as the data show it: active = potency below about 15 µM; inconclusive = mostly about 16 µM to 33 µM; inactive = weaker than that. The list shows a part of the results.

What follows are molecules tested against Lysosomal acid glucosylceramidase (Homo sapiens) (UniProt P04062) (assay: Glucocerebrosidase). Settings: purified enzyme, resorufin glucoside fluorescence (screen aimed at inhibitors), 20 min.
Source text: NCGC Assay Overview: Beta-glucocerebrosidase catalyzes the hydrolysis of beta-glucocerebroside to glucose and ceramide. The inherited deficiency of beta-glucocerebrosidase results in Gaucher disease, which is characterized by a wide variety of symptoms including hepatosplenomegaly, anemia, thrombocytopenia, bony lesions and bone marrow infiltration with characteristic storage cells, known as Gaucher cells. There are also forms of the disorder affecting the central nervous system. Patients with the same genotypes can manifest with diverse clinical presentations and it is believed that improper folding and trafficking of beta-glucocerbrosidase may contribute to the phenotypes observed. Low molecular weight molecules, acting as chaperones, may potentially restore trafficking of misfolded beta-glucocerebrosidase from the endoplasmic reticulum to the lysosomes, thereby enhancing functional lysosomal beta-glucocerebrosidase activity. Using normal beta-glucocerebrosidase, an assay was developed to screen for small molecule inhibitors that could potentially act as molecular chaperones on the mutant forms [developed with NIH investigator Dr. Ellen Sidransky's laboratory]. Two pro-fluorescent substrates were chosen for two screens against a small molecule library. One beta-glucocerebrosidase assay used Resorufin beta-D-Glucopyranoside (Marker Gene Technology Inc.), generating a red fluorescent product. The second assay used Fluorescein di-beta-D-Glucopyranoside, generating a blue fluorescent product. […] The IC50 values of Conduritol B Epoxide, a known glucocerebrosidase inhibitor, were determined to be 87.5 uM and 117 uM, respectively. The use of two difference pro-fluorescent substrates in the screens helped to eliminate false positives. All compounds were screened in a titration series resulting in AC50s (e.g., IC50s or EC50s).
NCGC Assay Protocol Summary: Both enzyme and substrate were diluted in buffer composed of 50mM citric acid/KH2PO4, 10mM sodium taurocholate and 0.01% tween-20 at pH 5.9. The final concentration of the enzyme was 0.2 nM in both assays. The compound library was titrated in 7 to 15 concentrations for the primary screens with a final concentration ranging from 0.6 nM to 50 uM. This particular assay protocol is for the "red" substrate, and it was performed in 1536-well plate format as follows: Red fluorescence substrate assay: 2 uL enzyme 23 nL compound 1 uL substrate (final concentration of 30 uM) Incubate at room temperature (RT) for 20 minutes Read the plate in Viewlux plate reader (Ex=548(7) and Em=600(10)).
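Also: the screen sought inhibitors.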
Potency is read from the fitted curve at half-maximal effect.

Chain of UniProt P04062 (P04062 whole entry, looked up): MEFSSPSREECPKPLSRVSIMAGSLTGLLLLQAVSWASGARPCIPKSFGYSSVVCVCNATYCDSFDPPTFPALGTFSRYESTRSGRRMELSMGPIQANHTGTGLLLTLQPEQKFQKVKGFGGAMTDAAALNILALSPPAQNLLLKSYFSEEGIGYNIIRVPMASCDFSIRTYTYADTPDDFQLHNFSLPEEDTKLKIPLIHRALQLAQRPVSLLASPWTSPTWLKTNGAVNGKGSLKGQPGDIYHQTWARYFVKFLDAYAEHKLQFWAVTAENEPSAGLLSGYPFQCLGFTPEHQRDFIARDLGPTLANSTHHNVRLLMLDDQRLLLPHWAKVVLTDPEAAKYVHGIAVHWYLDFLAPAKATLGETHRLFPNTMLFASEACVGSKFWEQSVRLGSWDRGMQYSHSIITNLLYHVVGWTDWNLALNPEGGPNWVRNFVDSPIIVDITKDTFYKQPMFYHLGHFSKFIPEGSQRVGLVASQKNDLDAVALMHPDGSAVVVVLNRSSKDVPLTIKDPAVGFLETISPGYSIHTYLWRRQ

Potency, active:
CC(=O)Nc1ccc(S(=O)(=O)Nc2ccc(NC(=O)c3ccco3)cc2)cc1 10.8 µM, CCC(c1nnnn1Cc1ccco1)N(CCc1ccccc1)Cc1cc2ccc(OC)cc2[nH]c1=O (configuration not stated) 14.2 µM

Potency, inactive:
Fc1cccc(Cl)c1Cn1nnc2c(-n3ccnc3)ncnc21 > 76.9 µM, CCC(C)NS(=O)(=O)c1ccc(NS(C)(=O)=O)cc1 (configuration not stated) > 76.9 µM, O=C1c2ccc(Oc3ccc4c(c3)C(=O)N(CCCCO)C4=O)cc2C(=O)N1CCCCO > 76.9 µM, CCOC(=O)NC1(C(F)(F)F)NC(=O)N(Cc2ccco2)C1=O (configuration not stated) > 76.9 µM, N#CCSc1nnc(C2CCCCC2)n1Cc1ccccc1 > 76.9 µM, Nc1nonc1-c1nc2ccccc2n1CC(=O)N1CCN(c2ccc(F)cc2)CC1 > 76.9 µM, CCn1c(SCC(=O)Nc2ccc(S(=O)(=O)Nc3ccccn3)cc2)nnc1-c1ccncc1 > 76.9 µM, COCCn1c(C)cc(C(=O)COC(=O)CCN2C(=O)c3ccccc3C2=O)c1C > 76.9 µM, CCN(CC)CCCN(Cc1cc2cc3c(cc2[nH]c1=O)OCCO3)C(=O)Nc1ccccc1 > 15.4 µM, O=C(CC1(O)C(=O)Nc2ccccc21)c1cccnc1 (configuration not stated) > 76.9 µM, COc1ccc(C(CC(=O)O)NC(=O)COc2ccccc2)cc1 (configuration not stated) > 76.9 µM, CN1CC(=O)N(CC(=O)NCCc2ccc(F)cc2)c2ccccc2C1=O > 76.9 µM, Fc1ccc(C2=Nn3c(Cc4ccccc4)nnc3SC2)cc1 > 76.9 µM, N#Cc1c(N)oc(-c2ccc3c(c2)OCO3)c1-c1ccc2c(c1)OCO2 > 76.9 µM, CC1(C)Cc2ccccc2C(=O)N1 > 76.9 µM, O=c1cc(O)nc(SCc2ccccc2)[nH]1 > 76.9 µM, O=C(NCCc1ccccc1)C1CCCN(S(=O)(=O)c2cccc3nsnc23)C1 (configuration not stated) > 76.9 µM, CCCS(=O)(=O)N1CCC(C(=O)NCCc2ccccc2)CC1 > 76.9 µM, COc1ccc(Cl)cc1N1CC(C(=O)Nc2nccs2)CC1=O (configuration not stated) > 76.9 µM, CC(C)(C)C(=O)CCN1C(=O)C2(OCCO2)c2ccccc21 > 76.9 µM, Cc1cc(NS(=O)(=O)c2ccc(NC(=O)CCCOc3ccc(Cl)cc3)cc2)no1 > 76.9 µM, COC(=O)C1=C(C(C)=O)C(c2ccc(C(=O)OC)cc2)n2nnnc2N1 (configuration not stated) > 76.9 µM, O=C(O)Cn1cnc2scc(-c3cccs3)c2c1=O > 76.9 µM, Cc1cc(C)n(Cc2ccc(C(=O)O)o2)n1 > 76.9 µM, O=c1[nH]c(=O)n(C2CCCO2)cc1Br (configuration not stated) > 76.9 µM, COc1ccccc1-c1nnc2n1N=C(C(C)(C)C)CS2 > 76.9 µM, CCC(C)[C@H](NC(=O)NC1CC1)C(=O)O (some centres not stated) > 76.9 µM, Cc1ccccc1Cn1cnc2c(cnn2C(C)(C)C)c1=O > 76.9 µM, Cc1ccc(S(=O)(=O)C2(C(=O)Nc3ccc(F)cc3)CC2)cc1 > 76.9 µM, Cn1nnnc1SCC(=O)Nc1c(Cl)cccc1Cl > 76.9 µM, Cc1ccc(-n2ncc(C#N)c2/N=C/N2CCN(C)CC2)cc1 > 76.9 µM, COCC(=O)Nc1ccc(Nc2ccccc2)cc1, O=C(O)C1C2CCC(C2)C1C(=O)NCc1ccccn1 (configuration not stated) > 76.9 µM, Cc1cc(C(=O)Nc2nc3ccc(S(C)(=O)=O)cc3s2)c(C)o1 > 76.9 µM, COc1cc(Cl)c(C)cc1NC(=O)CSc1nnc(-c2cccnc2)n1Cc1ccco1 > 76.9 µM, CNc1nnc(-c2ccncc2)s1 > 76.9 µM, CNC(=O)c1cc(C)c(-c2ccccc2)s1 > 76.9 µM, CCc1nnc(NC(=O)CSc2nccn2-c2ccccc2)s1 > 76.9 µM, O=C(CSc1nnc(SCc2ccc(Cl)cc2)s1)N1CCOCC1 > 76.9 µM, COc1ccc(-n2c(COc3ccccc3)nnc2SCc2ccc(C#N)cc2)cc1 > 76.9 µM, O=c1c2ccccc2nc(-c2cccc(Cl)c2)n1O > 76.9 µM, Cc1ccc(C)c(CN2CCNC2=O)c1 > 76.9 µM, CCCCSc1nnc([C@H](CC(C)C)NC(=O)OC(C)(C)C)o1 > 76.9 µM, O=C(NC(Cc1ccccc1)C(=O)O)c1ccccc1 (configuration not stated) > 76.9 µM, COc1ccc(CNCC(=O)Nc2cc(C)nn2-c2nc(C)cc(C)n2)cc1OC > 76.9 µM, CC(C)Cn1c(CCC(=O)O)ccc1-c1cccs1 > 76.9 µM, CCOC(=O)CSC1=C(C#N)C(c2ccccc2)C(C(C)=O)=C(C)N1 (configuration not stated) > 76.9 µM, O=C(NCc1ccco1)c1cc(-c2ccccn2)nc2ccccc12 > 76.9 µM, O=C(NCCCCO)C(F)(F)C(F)(F)C(F)(F)C(=O)NCCCCO > 76.9 µM, CN(CCO)C(=O)c1cccc2c1-c1ccccc1C2=O > 76.9 µM, Cc1cc(C)c(C#N)c(N2CCN(Cc3ccc4c(c3)OCO4)CC2)n1 > 76.9 µM, CC(=O)c1c(C)[nH]c(C(=O)OCC(=O)NCCc2ccc(F)cc2)c1C > 76.9 µM, Clc1ccccc1OCc1nc(-c2ccncc2)no1 > 76.9 µM, CCOCC(=O)Nc1nc2ccc(OCC)cc2s1 > 76.9 µM, CSc1nnc2n(-c3ccccc3)c(=O)c3c4c(sc3n12)CCC4 > 76.9 µM, O=C(CN1CCC(n2nnc3cc(F)ccc32)CC1)NC1CC1 > 76.9 µM, O=C(CSc1ccccn1)N1CCN(c2ccccc2)CC1 > 76.9 µM, CCN1CCCC1CNC(=O)CCc1nc(-c2ccc(C)cc2)no1 (configuration not stated) > 76.9 µM, CC(C1CC1)N(C(=O)NC1CCS(=O)(=O)C1)c1ccccc1 (configuration not stated) > 76.9 µM, Fc1ccccc1CSc1nnc(-c2cnccn2)n1Cc1ccco1 > 76.9 µM, CCOC(=O)C1=C(C)NC(=O)NC1c1ccc(OC)c(Cl)c1 (configuration not stated) > 76.9 µM, O=C(CN(Cc1ccco1)C(=O)CNS(=O)(=O)c1ccc(F)cc1)NCCc1ccccc1 > 76.9 µM, Cc1cc(OCC(=O)N2CCOCC2)ccc1NC(=O)C1CCCCC1 > 76.9 µM, Cc1nc(NC2=NCN(Cc3cccnc3)CN2)nc2c(C)cccc12 > 76.9 µM, CCOC(=O)CN(C(=O)CNC(=O)c1ccco1)C(C(=O)NC1CCCCC1)c1cccc(OC)c1 (configuration not stated) > 76.9 µM, COc1ccc(NCc2nnc(SCC(=O)N3CCCc4ccccc43)o2)cc1 > 76.9 µM, O=C(COc1ccc(-n2cnnn2)cc1)NCCc1ccc(F)cc1 > 76.9 µM, CCOc1cc(CNCC2CCCO2)cc(Br)c1OCC(N)=O (configuration not stated) > 76.9 µM, CC1C=CCC2C(=O)N(c3cccc(C(=O)N4CCN(c5ccc(F)cc5)CC4)c3)C(=O)C12 (configuration not stated), Cc1cc(NC(=O)c2ccc3nc(C)sc3c2)no1 > 76.9 µM, CCOC(=O)CCc1cccc2c1CCC2=O > 76.9 µM, CC1(C)CCCC2=C1CC1C(=O)N(c3ccccc3)C(=O)C1C2 (configuration not stated) > 76.9 µM, CC(=O)Nc1c(C(=O)NCc2ccccc2)nnn1Cc1ccccc1 > 76.9 µM, CCc1nc2ccccc2n1Cc1cc(=O)n2cc(C)ccc2n1 > 76.9 µM, Cc1onc(-c2ccccc2)c1C(=O)Oc1cccnc1 > 76.9 µM, N#Cc1c(NC(=O)CSc2ncn(-c3ccccc3)n2)sc2c1CCCC2 > 76.9 µM, CC(=O)C1C(c2cn(-c3ccccc3)nc2-c2cccs2)NC(=O)NC1(O)C(F)(F)F (configuration not stated) > 76.9 µM, Cc1ccc2[nH]c(=O)c(CN(Cc3nnnn3C3CCCC3)C3CCCCC3)cc2c1, Cc1ccc(CCNc2ccccc2)c[n+]1[O-] > 76.9 µM, Cc1cccc(-n2ccnc2SCC(=O)Nc2nccs2)c1C > 76.9 µM, Cn1c(C(=O)O)c(CC(=O)Nc2ccc(F)cc2F)c2ccccc21 > 76.9 µM, CN1CCc2c(sc3c2c(=O)n(-c2ccccc2)c2nnc(SCc4ccccc4F)n32)C1 > 76.9 µM, CC(C)N(Cc1nc(-c2ccc(Cl)cc2)no1)C(=O)C12CC3CC(CC(C3)C1)C2 > 76.9 µM, CC(C)Cn1c(N)c(C(=O)COC(=O)C2CCCCC2)c(=O)n(C)c1=O > 76.9 µM, CCN(CC)S(=O)(=O)N1CCC(C(=O)NCc2ccc(C)cc2)CC1 > 76.9 µM, CC1CN(C(=O)N2c3ccccc3Sc3ccccc32)C(C)CC1=O (configuration not stated) > 76.9 µM, CC(C)CNS(=O)(=O)c1ccc(C(=O)Nc2ccc3c(c2)OCCO3)cc1 > 76.9 µM, CC(C)CCNC(=O)CCNS(=O)(=O)c1ccc(Cl)cc1 > 76.9 µM, CCCN(CCC)S(=O)(=O)c1ccc2c(c1)CCCN2C(C)=O > 76.9 µM, CCOC(=O)c1c(COC(=O)c2ccco2)nc2ccccc2[n+]1[O-] > 76.9 µM
